# According to a collection of fitness landscapes (doi:10.1016/j.celrep.2020.107928):
# Whole data set: some 81,000 sequences, median “one-hybrid fitness for binding NBS DNA” near -0.1, cut for the highest 2% near 0.36. The list shows a part of the results.
# B1: Caulobacter ParB omega fusion; a variant is named by its letters at X, in order, B8GW30 (parent)
# chain: MESVVVGEPGMSEGRRGLGRGLSALLGEVDAAPAQAPGEQLGGSREAPIEILQRNPDQPRRTFREEDLEDLSNSIREKGVLQPILVRPSPDTAGEYQIVAGERAWRAAQRAGLKTVPIMVRELDDLAVLEIGIIENVQRADLNVLEEALSYKVLMEKFERTQENIAQTIGKSXSHVANXMRLLXLPDEVQSYLVSGELTAXHARAIAAAADPVALAKQIIEGGLSVRETEALARKAPNLSAGKSKGGRPPRVKDTDTQALESDLSSVLGLDVSIDHRGSTGTLTITYATLEQLDDLCNRLTRGI
# Variants of: B1
# Experiment: one-hybrid fitness for binding NBS DNA (the Noc-binding site; scaled: cognate 1, non-cognate 0); higher = stronger binding
# Conditions: with NBS DNA site
# Method in brief: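 Fitness is the rescaled log change in variant-to-wild-type read ratio, measured by Illumina sequencing of plasmids before and after bacterial one-hybrid selection. The scale puts cognate at 1 and non-cognate at 0. Selection of Caulobacter ParB libraries, four specificity codons randomised, took place in E. coli USO with a HIS3 reporter, site 19 bp from the promoter, over 48 hours at 37°C on M9-minus-histidine with 0.1 mM IPTG and 5 mM 3-AT.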
row,Variant,one-hybrid fitness for binding NBS DNA
1,QTTT,0.603
2,QAAT,0.401
3,RNMF,≤ 0.2
4,SVHC,≤ 0.2
5,LIVG,≤ 0.2
6,MPMI,≤ 0.2
7,KILG,≤ 0.2
8,VFKM,≤ 0.2
9,CLSP,≤ 0.2
10,YTVA,≤ 0.2
11,DRTL,≤ 0.2
12,PDVI,≤ 0.2
13,LPDF,≤ 0.2
14,KGNY,≤ 0.2
15,EDSE,≤ 0.2
16,TPRG,≤ 0.2
17,CYSS,≤ 0.2
18,KIER,≤ 0.2
19,GCTW,≤ 0.2
20,CRRF,≤ 0.2
21,LWLT,≤ 0.2
22,TGRY,≤ 0.2
23,YWDM,≤ 0.2
24,NMSY,≤ 0.2

row,Variant,one-hybrid fitness for binding NBS DNA
1,VGLW,≤ 0.2
2,TGWG,≤ 0.2
3,QDFY,≤ 0.2
4,TPDN,≤ 0.2
5,LDDC,≤ 0.2
6,MILL,≤ 0.2
7,LTRD,≤ 0.2
8,TRKR,0.799
9,LNTW,≤ 0.2
10,ISDE,≤ 0.2
11,LFLT,≤ 0.2
12,AIPK,≤ 0.2
13,FKVG,≤ 0.2
14,SSDV,≤ 0.2
15,ISNN,≤ 0.2
16,SRTA,≤ 0.2
17,IAPL,≤ 0.2
18,VKSD,≤ 0.2
19,NMTK,≤ 0.2
20,AMNG,≤ 0.2
21,HGSD,≤ 0.2
22,LKTR,≤ 0.2
23,GMNT,≤ 0.2
24,LNAC,≤ 0.2

row,Variant,one-hybrid fitness for binding NBS DNA
1,RFNK,≤ 0.2
2,ECKL,≤ 0.2
3,PPQY,≤ 0.2
4,YIRC,≤ 0.2
5,QKAW,≤ 0.2
6,IIDW,≤ 0.2
7,DRMI,≤ 0.2
8,QRAH,0.583
9,LPLE,≤ 0.2
10,PILR,≤ 0.2
11,WNAR,≤ 0.2
12,LFKR,≤ 0.2
13,QQRG,0.407
14,VMTY,≤ 0.2
15,APFI,≤ 0.2
16,SWLC,≤ 0.2
17,TLET,≤ 0.2
18,EELY,≤ 0.2
19,KNNL,≤ 0.2
20,PALE,≤ 0.2
21,AACN,≤ 0.2
22,SMDM,≤ 0.2
23,SWDL,≤ 0.2
24,LPLS,≤ 0.2

row,Variant,one-hybrid fitness for binding NBS DNA
1,LTRW,≤ 0.2
2,YCVR,≤ 0.2
3,QRMT,0.729
4,EKAS,≤ 0.2
5,PKSE,≤ 0.2
6,LDRF,≤ 0.2
7,WQTV,≤ 0.2
8,LWGF,≤ 0.2
9,ASIG,≤ 0.2
10,CITT,≤ 0.2
11,QCQV,≤ 0.2
12,TYSI,≤ 0.2
13,DSNI,≤ 0.2
14,YYTS,≤ 0.2
15,HTGC,≤ 0.2
16,VERS,≤ 0.2
17,TPCC,≤ 0.2
18,KYMV,≤ 0.2
19,FHVK,≤ 0.2
20,LPCV,≤ 0.2
21,CRET,≤ 0.2
22,SEEM,≤ 0.2
23,RTSS,0.475
24,YALK,≤ 0.2

row,Variant,one-hybrid fitness for binding NBS DNA
1,CSNK,≤ 0.2
2,QKNN,0.203
3,CLKM,≤ 0.2
4,GSKK,≤ 0.2
5,VFNS,≤ 0.2
6,PRSP,≤ 0.2
7,RPLD,≤ 0.2
8,LTVK,≤ 0.2
9,SKYS,≤ 0.2
10,RWIF,≤ 0.2
11,LLTW,≤ 0.2
12,YYSC,≤ 0.2
13,HLCG,≤ 0.2
14,DGRW,≤ 0.2
15,VCCR,≤ 0.2
16,VTIC,≤ 0.2
17,GGSV,≤ 0.2
18,KAPL,≤ 0.2
19,NGRV,≤ 0.2
20,TAWR,≤ 0.2
21,DVVG,≤ 0.2
22,LMAR,≤ 0.2
23,PNPP,≤ 0.2
24,VGPE,≤ 0.2

row,Variant,one-hybrid fitness for binding NBS DNA
1,PPPP,≤ 0.2
2,SGWC,≤ 0.2
3,VAIV,≤ 0.2
4,WRIL,≤ 0.2
5,KTKH,0.21
6,CLQS,≤ 0.2
7,YNIV,≤ 0.2
8,PMKT,≤ 0.2
9,MPHG,≤ 0.2
10,ESLI,≤ 0.2
11,CIDG,≤ 0.2
12,TDMT,≤ 0.2
13,IRHS,≤ 0.2
14,HHAR,≤ 0.2
15,NRIG,≤ 0.2
16,WVPG,≤ 0.2
17,SISA,≤ 0.2
18,SVHN,≤ 0.2
19,GSSI,≤ 0.2
20,ILFE,≤ 0.2
21,LVRE,≤ 0.2
22,WQLM,≤ 0.2
23,PSEV,≤ 0.2
24,WIVC,≤ 0.2

row,Variant,one-hybrid fitness for binding NBS DNA
1,VRAP,≤ 0.2
2,QEQG,≤ 0.2
3,PITL,≤ 0.2
4,TAIR,≤ 0.2
5,WGTT,≤ 0.2
6,SGRV,≤ 0.2
7,CIYS,≤ 0.2
8,MLNV,≤ 0.2
9,YTHP,≤ 0.2
10,KSTM,≤ 0.2
11,KTHS,≤ 0.2
12,HHAF,≤ 0.2
13,RMNQ,≤ 0.2
14,QPSK,≤ 0.2
15,VVPC,≤ 0.2
16,VNTT,≤ 0.2
17,SRFS,≤ 0.2
18,FKHR,≤ 0.2
19,CADN,≤ 0.2
20,NNFS,≤ 0.2
21,NNRS,≤ 0.2
22,QLTQ,≤ 0.2
23,QQFT,0.435
24,HAWY,≤ 0.2

row,Variant,one-hybrid fitness for binding NBS DNA
1,AGIW,≤ 0.2
2,LRFS,≤ 0.2
3,ELCT,≤ 0.2
4,FWHS,≤ 0.2
5,GTKY,≤ 0.2
6,KYIS,≤ 0.2
7,IAAC,≤ 0.2
8,MRWL,≤ 0.2
9,RHPT,≤ 0.2
10,TDNM,≤ 0.2
11,RPYK,≤ 0.2
12,WQNE,≤ 0.2
13,AWFT,≤ 0.2
14,LHRM,≤ 0.2
15,RRIN,0.206
16,NLKI,≤ 0.2
17,LILW,≤ 0.2
18,RVFK,≤ 0.2
19,CKET,≤ 0.2
20,NYSS,≤ 0.2
21,QEDG,≤ 0.2
22,IYDI,≤ 0.2
23,QIQS,0.225
24,HTNV,≤ 0.2

row,Variant,one-hybrid fitness for binding NBS DNA
1,WTNT,≤ 0.2
2,ANTV,≤ 0.2
3,KEIV,≤ 0.2
4,CAGY,≤ 0.2
5,TLPK,≤ 0.2
6,WHLC,≤ 0.2
7,CVIV,≤ 0.2
8,VYVT,≤ 0.2
9,STAG,≤ 0.2
10,IYTS,≤ 0.2
11,MPHT,≤ 0.2
12,GVQC,≤ 0.2
13,KFDR,≤ 0.2
14,MSAP,≤ 0.2
15,GKSR,≤ 0.2
16,FSEF,≤ 0.2
17,AFPE,≤ 0.2
18,NSCL,≤ 0.2
19,AHNE,≤ 0.2
20,PFTS,≤ 0.2
21,TSDE,≤ 0.2
22,TFEE,≤ 0.2
23,SQKA,≤ 0.2
24,PKME,≤ 0.2

row,Variant,one-hybrid fitness for binding NBS DNA
1,DKDK,≤ 0.2
2,HLSA,≤ 0.2
3,TCQL,≤ 0.2
4,GFNG,≤ 0.2
5,TADR,≤ 0.2
6,STDK,≤ 0.2
7,KYCC,≤ 0.2
8,YDGC,≤ 0.2
9,DDKR,≤ 0.2
10,YDNC,≤ 0.2
11,AASD,≤ 0.2
12,LFRC,≤ 0.2
13,PKPI,≤ 0.2
14,HPYG,≤ 0.2
15,TDMR,≤ 0.2
16,QNQS,≤ 0.2
17,VWVK,≤ 0.2
18,DRYW,≤ 0.2
19,WPAC,≤ 0.2
20,LRHQ,≤ 0.2
21,VRNG,≤ 0.2
22,ACGG,≤ 0.2
23,RNHM,≤ 0.2
24,VNLT,≤ 0.2

row,Variant,one-hybrid fitness for binding NBS DNA
1,RCQG,≤ 0.2
2,WCPS,≤ 0.2
3,YLES,≤ 0.2
4,PLPC,≤ 0.2
5,MDPL,≤ 0.2
6,NMTG,≤ 0.2
7,LRTC,≤ 0.2
8,NPND,≤ 0.2
9,QGNA,≤ 0.2
10,QFAT,≤ 0.2
11,QNQM,≤ 0.2
12,ASYR,≤ 0.2
13,RMFY,≤ 0.2
14,IGAF,≤ 0.2
15,HGIS,≤ 0.2
16,VILC,≤ 0.2
17,ANCG,≤ 0.2
18,QHKW,0.238
19,ASYV,≤ 0.2
20,LNYL,≤ 0.2
21,EPIC,≤ 0.2
22,RSLR,0.339
23,PAFC,≤ 0.2
24,QTYK,≤ 0.2

row,Variant,one-hybrid fitness for binding NBS DNA
1,VGKS,≤ 0.2
2,AYFC,≤ 0.2
3,HRND,≤ 0.2
4,KVKY,≤ 0.2
5,SHRA,≤ 0.2
6,MDRC,≤ 0.2
7,SSHD,≤ 0.2
8,PPHY,≤ 0.2
9,PQSK,≤ 0.2
10,PYMC,≤ 0.2
11,FPNR,≤ 0.2
12,GQHR,≤ 0.2
13,SGID,≤ 0.2
14,NPIP,≤ 0.2
15,RCVS,0.335
16,GHRG,≤ 0.2
17,STTY,≤ 0.2
18,GAPN,≤ 0.2
19,MQAL,≤ 0.2
20,QRPY,≤ 0.2
21,TTWM,≤ 0.2
22,TYTA,≤ 0.2
23,TINC,≤ 0.2
24,GEDA,≤ 0.2

row,Variant,one-hybrid fitness for binding NBS DNA
1,TSLE,≤ 0.2
2,VMFC,≤ 0.2
3,NMMC,≤ 0.2
4,TAAD,≤ 0.2
5,GFPT,≤ 0.2
6,RPAD,≤ 0.2
7,TTEK,≤ 0.2
8,CGGG,≤ 0.2
9,AYRY,≤ 0.2
10,RLIP,≤ 0.2
11,TKEG,≤ 0.2
12,CKAI,≤ 0.2
13,WYGN,≤ 0.2
14,PIRQ,≤ 0.2
15,QLVC,≤ 0.2
16,RSAQ,≤ 0.2
17,GTLN,≤ 0.2
18,RAIR,0.207
